Measured values: PubChem BioAssay AID1347043 (National Center for Advancing Translational Sciences (NCATS), 2019)
In all, about 76,000 compounds went through this assay and about 1,900 (2.5%) were called active. The inconclusive results got no clear call from the source; some entries with a clear call stand among them for comparison. Calls come from the whole dose curve; as a rule, active = well fitted inhibition curve with a large enough effect; inconclusive = small, poorly fitted or top-dose-only effect; inactive = flat fitted curve, though single readings scatter. Potencies of inconclusive entries are doubtful fits and often do not repeat.
% is set by controls: 0 for no effect and ±100 for the full control effect; potency is the fitted concentration of half-maximal effect; tags give direction and shape of the fitted curve.
Note: nearly all actives have a fitted effect of over 65% in size.

The molecules below were run against Luciferin 4-monooxygenase (Photinus pyralis) (UniProt P08659) (assay: Firefly luciferase inhibition profiling of diverse chemical library using quantitative high-throughput screening). Conditions: purified P. pyralis luciferase, luminescence, biochemical; activity change, negative = inhibition: at 115 µM (top of the series) unless noted.
Chain of UniProt P08659 (P08659 whole entry, looked up): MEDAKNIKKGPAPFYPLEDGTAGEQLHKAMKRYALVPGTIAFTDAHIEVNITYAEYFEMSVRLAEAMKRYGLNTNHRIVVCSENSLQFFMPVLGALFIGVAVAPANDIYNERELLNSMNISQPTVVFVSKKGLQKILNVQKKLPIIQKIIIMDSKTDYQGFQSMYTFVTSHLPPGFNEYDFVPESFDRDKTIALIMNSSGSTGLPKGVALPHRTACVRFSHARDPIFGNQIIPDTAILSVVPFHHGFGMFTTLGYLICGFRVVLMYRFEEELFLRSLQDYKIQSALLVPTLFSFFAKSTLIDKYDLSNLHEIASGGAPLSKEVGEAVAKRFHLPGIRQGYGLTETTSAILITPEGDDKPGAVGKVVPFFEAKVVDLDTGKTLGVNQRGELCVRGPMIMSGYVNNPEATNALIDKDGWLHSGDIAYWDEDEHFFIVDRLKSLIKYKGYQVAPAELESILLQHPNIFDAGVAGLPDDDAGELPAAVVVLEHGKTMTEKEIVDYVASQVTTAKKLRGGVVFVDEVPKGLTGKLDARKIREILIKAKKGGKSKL
Outline: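 Luminescence read by CCD imager after adding enzyme (10nM final) to wells holding compound, titrated in qHTS. Substrates 10uM each D-luciferin and ATP; buffer 50mM Tris acetate pH 7.5, 10mM Mg acetate, Tween-20, BSA.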
COc1ccc(C(=O)NCCC2CCN(C(=O)Nc3ccccc3)CC2)cc1 was tested, and the Potency was inconclusive: 39.8 µM [inhibitor, partial curve].
With COc1ccc(-c2noc([C@@H]3C[C@@H](O)CN3Cc3cc4ccccc4o3)n2)cc1 the Potency was active: 5.01 µM.
CCCN(Cc1cccc(OC)c1)C(=O)C(c1cccnc1)N1CCOCC1 (centres undefined) was tested, and the “activity change, negative = inhibition” value was inactive: 7.47%.
With Cc1cc(NC(=O)c2ccc3c(c2)N(C)C2CCCCN2C3=O)ccc1Cl (centres undefined) the Potency was active: 25.1 µM.
COc1cc(C(=O)NC2CCCN(c3cc(-c4ccc(F)cc4)[nH]n3)C2)cc(OC)c1OC (centres undefined) was tested, and the Potency was active: 12.6 µM.
COc1ccc(C2Cn3cnc(C(=O)N4CCC(C(=O)Nc5ccc(F)c(C)c5)CC4)c3CO2)cc1 (centres undefined) was tested, and the “activity change, negative = inhibition” value was inactive: -16.6%.
For O=C(c1cn(-c2ccccc2)nn1)N1CCOCC(O)(CN2CCCC2)C1 (centres undefined), the Potency was inconclusive: 50.1 µM [inhibitor, partial curve, poor fit].
In the case of CC[C@H]1CN(Cc2ccc(OC)cc2O)CC[C@H]1CC(=O)N(C)CC#N, the “activity change, negative = inhibition” value is reported as inactive: -2.55% [at 172 µM].
In the case of O=C(O)CCn1ncc2cc(OCC3CCN(c4ncccn4)CC3)ccc21, the Potency is reported as active: 63.1 µM.
COc1ccc(-c2noc(N(C)Cc3ccccc3)n2)cc1OC was tested, and the Potency was inconclusive: 28.2 µM [inhibitor, partial curve].
For Cc1ccc(NC(=O)Nc2ccccc2)c(=O)n1CC(=O)N1CCN(c2ccccc2)CC1, the Potency was active: 11.2 µM.
COc1cccc(NC(=O)Cn2ccn3nc4c(c3c2=O)CCCCC4)c1 was tested, and the Potency was inconclusive: 50.1 µM [inhibitor, partial curve].
With O=C(CN1CCOCC1)N[C@@H]1CCOC[C@H]1Oc1ccc(C(=O)O)cc1 the “activity change, negative = inhibition” value was inactive: 3%.
In the case of Cc1nn(-c2ccc(C(C)C)cc2)c(C)c1[C@@H]1C=C[C@@H](NC(=O)NC(C)C)C1, the Potency is reported as active: 3.55 µM.
In the case of Cc1ccc(-c2nc(C(=O)NCc3cccc(Br)c3)no2)cc1, the Potency is reported as inconclusive: 25.1 µM [inhibitor, full curve].
For Cc1ccc(C2Cn3nnc(C(=O)N4CCC(C(=O)NC5CCc6ccccc65)CC4)c3CO2)cc1 (centres undefined), the Potency was inconclusive: 50.1 µM [inhibitor, partial curve].
COCCNC(=O)CCC1CCN(C(=O)c2ccccc2Cl)CC1 was tested, and the Potency was active: 31.6 µM.
In the case of COc1ccc(-c2[nH]ncc2CN2CCn3nnc(CCC(=O)N4CCCC4)c3C2)cc1, the “activity change, negative = inhibition” value is reported as inactive: 0.969%.
With C[S+](=O)([O-])c1ccc(-c2ncc3c(n2)OCCN(c2ccccc2)C3=O)cc1 the Potency was inconclusive: 126 µM [inhibitor, single point].
CN(Cc1ccccc1C(F)(F)F)C(=O)Nc1ccccc1 was tested, and the Potency was inconclusive: 100 µM [inhibitor, partial curve, poor fit].
O=C1OCC2(CCN(Cc3ccc4c(c3)CCO4)C2)N1Cc1ccccc1 (centres undefined) was tested, and the “activity change, negative = inhibition” value was inactive: -16.8% [at 172 µM].
In the case of CCN(CC)c1ccc(CNC(=O)c2cc3c(s2)CN(C(C)C)C3)cc1, the Potency is reported as inconclusive: 50.1 µM [inhibitor, partial curve].
In the case of COc1cccc(-c2cc(C(=O)N3CCCC3c3nncn3C(C)C)[nH]n2)c1 (centres undefined), the Potency is reported as inconclusive: 44.7 µM [inhibitor, partial curve].
With Oc1ccccc1CN1CCNc2cc(Nc3ccccc3)ncc2C1 the Potency was active: 5.62 µM.
CN(C)c1ccc(C(=O)N[C@H]2CO[C@H]3[C@@H]2OC[C@@H]3n2cc(-c3ccccn3)nn2)cc1 was tested, and the Potency was inconclusive: 70.8 µM [inhibitor, partial curve].
COc1ccc(-c2noc([C@@H]3C[C@@H](O)CN3Cc3ccccn3)n2)cc1 was tested, and the Potency was inconclusive: 35.5 µM [inhibitor, partial curve].
COc1ccc(C(=O)Nc2ccc(-c3noc([C@@H]4CCCN4C)n3)cn2)cc1 was tested, and the Potency was inconclusive: 44.7 µM [inhibitor, partial curve].
For Cc1cc2cc(-c3c(C)noc3C)nc(-c3cccc([S+](C)(=O)[O-])c3)c2o1, the “activity change, negative = inhibition” value was inactive: 0.863% [at 172 µM].
OC1CC(c2cc(NCCSC3CCCCC3)ncn2)C1 (centres undefined) was tested, and the Potency was inconclusive: 50.1 µM [inhibitor, partial curve].
For CS(=O)(=O)c1ccc(CN2CCOC[C@H]2c2ncc(-c3ccc(Cl)s3)[nH]2)cc1, the “activity change, negative = inhibition” value was inactive: 1.09%.
With O=C(Nc1cccc(-c2ccc(N3CCCC3)nn2)c1)Nc1cc(F)ccc1F the Potency was active: 5.01 µM.
For COCCN1CCC2(C1)CN(C)c1ccc(C(=O)Nc3ccc(OC)cc3)cc12 (centres undefined), the Potency was inconclusive: 25.1 µM [inhibitor, full curve, poor fit].
For O=C1CCn2nnc(CNc3ccc(OC(F)(F)F)cc3)c2CN1Cc1ccccc1, the “activity change, negative = inhibition” value was inactive: 2.14% [at 172 µM].
Cc1ccccc1C(=O)NCCn1cccc1-c1nc(-c2ccc3c(c2)OCO3)no1 was tested, and the Potency was inconclusive: 3.98 µM [inhibitor, full curve, poor fit].
For Cc1cccc(-c2noc([C@@H]3Cc4nc[nH]c4CN3C(=O)NC(C)C)n2)c1, the Potency was inconclusive: 56.2 µM [inhibitor, partial curve].
In the case of COc1ccc(CN2C(=O)CO[C@H](c3ccc(NC(=O)c4ccc(OC)cc4)cc3)[C@H]2CO)cc1, the Potency is reported as inconclusive: 44.7 µM [inhibitor, partial curve].
With c1ccc(-c2nnc([C@H]3CCN(C4CCOCC4)C3)o2)cc1 the Potency was inconclusive: 63.1 µM [inhibitor, partial curve, poor fit].
In the case of COc1ccc(-c2cc3nc4c(c(=O)n3[nH]2)CN(C(=O)c2ccc3[nH]ccc3c2)CC4)cc1, the Potency is reported as inconclusive: 14.1 µM [inhibitor, full curve].
For Cc1cccc(NC(=O)N2CCc3c(C(=O)N(C)Cc4ccco4)cccc32)c1, the Potency was inconclusive: 2.82 µM [inhibitor, full curve, poor fit].
For COCc1ccc2c(c1)c(OC(C)(C)C(=O)NCCc1cccnc1)nn2CCC(C)C, the “activity change, negative = inhibition” value was inactive: -10.5% [at 172 µM].
For O=C(Nc1ccc(F)cc1)c1ccc2cncn2c1, the Potency was inconclusive: 112 µM [inhibitor, partial curve].
In the case of CC(C)(C)C(Cn1ccnc1)NC(=O)c1cc(COc2ccc3c(c2)CCCC3)on1 (centres undefined), the Potency is reported as inconclusive: 56.2 µM [inhibitor, partial curve].
In the case of CCc1nc(-c2c3n(c(=O)n(CC(=O)Nc4cccc(C#N)c4)c2=O)CCCCC3)no1, the “activity change, negative = inhibition” value is reported as inactive: 0.276%.
With O=C1CCN(C(=O)c2ccccn2)CCCC(c2nc(-c3ccccc3)no2)CCN1 (centres undefined) the Potency was inconclusive: 44.7 µM [inhibitor, partial curve].
In the case of c1ccc(CCCN2Cc3[nH]cnc3C[C@H]2c2nc(-c3cnccn3)no2)cc1, the “activity change, negative = inhibition” value is reported as inactive: -2.68% [at 172 µM].
For O[C@@H]1C[C@@H](c2nc(-c3ccc4c(c3)OCO4)no2)N(Cc2ccc(-c3ccccn3)cc2)C1, the Potency was inconclusive: 50.1 µM [inhibitor, partial curve, poor fit].
CCOc1ccc2c(n1)CCN(C(=O)NCC(C)C)C2 was tested, and the Potency was inconclusive: 44.7 µM [inhibitor, partial curve, poor fit].
For c1cnc2cc(-c3nc(C4CCOC4)no3)ccc2n1 (centres undefined), the Potency was inconclusive: 44.7 µM [inhibitor, partial curve].
For CN1c2cc(C(=O)Nc3ccc4c(c3)CCC4)ccc2C(=O)N2CCCCC21 (centres undefined), the Potency was active: 28.2 µM.
O=C1N[C@@H]2CCN(C(=O)c3ccc(-c4ccccc4)cc3)[C@@H]2C(=O)N1Cc1ccccc1 was tested, and the Potency was inconclusive: 126 µM [inhibitor, single point].
CCCN1C(=O)CCc2cc(NC(=O)c3cccc(N(C)C)c3)ccc21 was tested, and the Potency was inconclusive: 44.7 µM [inhibitor, partial curve].
CN1CC(=O)N(c2ccccc2F)Cc2c(NCCc3ccc(Cl)cc3)ncnc21 was tested, and the “activity change, negative = inhibition” value was inactive: 1.78%.
With Cn1ccc2c(C(=O)NCCc3cnc[nH]3)nc(-c3cccc(C(F)(F)F)c3)cc21 the “activity change, negative = inhibition” value was inactive: 4.4% [at 172 µM].
With COCCN1C(=O)[C@@H]2C[C@@H](CN2Cc2ccc3ccccc3n2)Oc2ccccc21 the Potency was inconclusive: 89.1 µM [inhibitor, partial curve].
In the case of Cn1cc(CN2C[C@@H]3OCC(=O)N[C@@H]3C2)c2ccccc21, the “activity change, negative = inhibition” value is reported as inactive: -14.4% [at 230 µM].
With CCN1c2cc(C(=O)Nc3ccccc3)ccc2C(=O)N2CCCC21 (centres undefined) the “activity change, negative = inhibition” value was inactive: -13.5%.
COc1cccc(-c2nc(-c3c(C)noc3C)cc3c2cc(C)n3CCN(C)C)c1 was tested, and the “activity change, negative = inhibition” value was inactive: 6.76% [at 172 µM].
With O=C(NCc1ccc(F)cc1Cl)C1CCN(C(=O)c2ncn3c2COC(c2ccccc2)C3)CC1 (centres undefined) the Potency was active: 12.6 µM.
In the case of CN1c2cc(C(=O)Nc3ccc(Br)cc3)ccc2C(=O)N2CCCCC21 (centres undefined), the Potency is reported as active: 31.6 µM.
For CCOc1ccc2c(n1)CCN(C(=O)Nc1cccc(CC)c1)C2, the Potency was inconclusive: 50.1 µM [inhibitor, partial curve].
In the case of CC(C)(C)c1ccc(-c2cc(C[C@H]3CNCC[C@H]3CC(=O)NCc3ccc(F)cc3)no2)cc1, the “activity change, negative = inhibition” value is reported as inactive: 12.6%.
With CNC(=O)CCn1ncc2cc(OCc3ccccc3-c3ccc(OC)cc3C)ccc21 the Potency was inconclusive: 50.1 µM [inhibitor, partial curve].
In the case of CN1Cc2ccc(C(=O)Nc3ccc4cn[nH]c4c3)cc2OCC1=O, the Potency is reported as active: 31.6 µM.
In the case of COc1cccc(-c2cc3c(=O)n(CCNC(=O)c4cccc5[nH]ccc45)ccn3n2)c1, the Potency is reported as inconclusive: 4.47 µM [inhibitor, full curve].
CC(C)C(=O)N[C@H]1C[C@@H](Cc2cc(CN3CCOCC3)on2)C1(C)C was tested, and the “activity change, negative = inhibition” value was inactive: 1.88% [at 172 µM].
In the case of Cc1ccc(C2=NC3(CCN(C(=O)c4ccc(F)c(Cl)c4)CC3)ON2)cc1, the Potency is reported as inconclusive: 39.8 µM [inhibitor, partial curve].
With Fc1cccc(CN2CCNc3cc(Nc4cccnc4)ncc3C2)c1 the Potency was active: 35.5 µM.
With Cc1nc(N)nc(C)c1CC(=O)N1CC[C@@H](NC(=O)c2cccnc2)[C@H](O)C1 the “activity change, negative = inhibition” value was inactive: 0%.
With CCOc1ccc2c(n1)CCN(C(=O)Nc1cc(C)ccc1C)C2 the Potency was inconclusive: 50.1 µM [inhibitor, partial curve].
